Screen size: about 48,000 compounds; about 550 (1.1%) were called active. Another 4% or so got no clear call; they are omitted. Rule as the data show it: active = potency below about 15 µM; inconclusive = mostly about 16 µM to 33 µM; inactive = weaker than that. This is one part of the list.
Biological target: Lysosomal acid glucosylceramidase (Homo sapiens) (UniProt P04062)
Test: Glucocerebrosidase;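 also: the screen sought inhibitors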
Details: purified enzyme, resorufin glucoside fluorescence (screen aimed at inhibitors), 20 min
Method in brief: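 Wild-type enzyme at 0.2 nM final in 50mM citric acid/KH2PO4, 10mM sodium taurocholate, 0.01% tween-20, pH 5.9, with resorufin beta-D-glucopyranoside at 30 uM final. Compounds titrated, 20 min at RT, red fluorescence read; AC50 from titration.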
Potency is read from the fitted curve at half-maximal effect.

UniProt P04062, sequence (P04062 whole entry, looked up): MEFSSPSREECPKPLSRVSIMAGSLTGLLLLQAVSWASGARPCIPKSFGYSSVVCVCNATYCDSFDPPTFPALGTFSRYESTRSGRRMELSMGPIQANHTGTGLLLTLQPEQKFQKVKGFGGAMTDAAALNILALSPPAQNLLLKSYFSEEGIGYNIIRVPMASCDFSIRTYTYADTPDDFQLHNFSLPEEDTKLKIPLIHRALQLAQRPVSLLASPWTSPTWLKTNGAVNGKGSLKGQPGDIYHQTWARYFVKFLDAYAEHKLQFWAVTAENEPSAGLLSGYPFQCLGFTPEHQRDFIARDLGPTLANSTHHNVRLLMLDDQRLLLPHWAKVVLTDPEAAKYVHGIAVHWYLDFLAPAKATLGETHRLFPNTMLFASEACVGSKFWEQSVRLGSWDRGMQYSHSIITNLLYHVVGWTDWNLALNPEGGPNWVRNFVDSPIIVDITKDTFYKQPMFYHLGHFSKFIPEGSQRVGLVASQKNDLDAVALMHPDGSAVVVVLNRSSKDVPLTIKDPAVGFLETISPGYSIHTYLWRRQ

Potency, inactive:
Cn1c(=O)[nH]c(=O)c2[nH]c(CN3CCN(C(=O)c4ccco4)CC3)nc21 > 76.9 µM, CCOC(=O)COc1ccc2c3c(c(=O)oc2c1C)CCC3, COc1cccc(NC(=O)N2CCN(c3cccc(C)c3C)CC2)c1 > 76.9 µM, Cc1cccc(NC(=O)c2ccccc2C(=O)O)c1 > 76.9 µM, CCOC(=O)Nc1sc2c(c1C#N)CCC(C)C2 (stereo not drawn) > 76.9 µM, CCOc1ccccc1C(=O)NCCC(=O)O > 76.9 µM, CN(C)C(=O)CCc1nc(-c2ccc(C(C)(C)C)cc2)no1 > 76.9 µM, CCOC(=O)N1CCN(c2cc(=O)n(C3CCCCC3)c(=O)[nH]2)CC1 > 76.9 µM, COc1ccc(NC(=O)Cn2cccc2)c(OC)c1 > 76.9 µM, CC(=O)N1CCc2cc(Br)cc(S(=O)(=O)N3CCN(c4ccccn4)CC3)c21 > 76.9 µM, CCOC(=O)C1CCN(C(=O)CCc2ccccc2)CC1 > 76.9 µM, COC(=O)c1ccc(C2CC(=O)Nc3cc(OC)c(OC)c(OC)c32)cc1 (stereo not drawn) > 76.9 µM, C=CCn1c(-c2cccs2)nc2nc3ccccc3nc21 > 76.9 µM, Cc1ccccc1C(=O)Nc1ccc(Br)c(C)n1 > 76.9 µM, CCCCCn1c(=O)[nH]c2cc(C(=O)NCCN(CC)CC)ccc2c1=O > 76.9 µM, Cc1ccc(S(=O)(=O)N(C)CCCC(=O)NCc2ccc3c(c2)OCO3)cc1 > 76.9 µM, Cc1nn(-c2ccccn2)c2nc(-c3cccs3)cc(C(=O)N3CCOCC3)c12 > 76.9 µM, COc1ccc(-c2cc3nc(C)c(CCC(=O)N4CCCCC4)c(C)n3n2)c(OC)c1 > 76.9 µM, CCCc1cc(=O)[nH]c(SCC)n1 > 76.9 µM, O=C(NCCCN1CCC(Cc2ccccc2)CC1)C1CCN(S(=O)(=O)N2CCOCC2)CC1 > 76.9 µM, CCC(C)(C)n1nnnc1CN(Cc1cccs1)Cc1cc2cc(OC)ccc2[nH]c1=O, CC(C)CCNC(=O)NC(=O)COc1ccccc1C#N > 76.9 µM, CCOC(=O)c1c(NC(=O)CSc2nnc(CNc3ccc(F)cc3)o2)sc(C(C)=O)c1C > 76.9 µM, Cc1ccc(-c2nnn(CC(=O)NCCc3ccc4c(c3)OCO4)n2)o1 > 76.9 µM, Cc1c(C(=O)N2CCOCC2)[nH]c2c1C(=O)CC(c1ccccc1Cl)C2 (stereo not drawn) > 76.9 µM, CC1CCc2nc(NC(=O)Cc3cccs3)sc2C1 (stereo not drawn) > 76.9 µM, CCOc1cc(C2C(C#N)=C(N)OC(C)=C2C(C)=O)cc(Br)c1O (stereo not drawn) > 76.9 µM, O=C(O)c1ccc(-n2cccc2)cc1O > 76.9 µM, COc1cccc(N2CC(C(=O)Nc3ccc(C(=O)OC(C)C)cc3)CC2=O)c1 (stereo not drawn) > 76.9 µM, O=C(NCc1ccccc1)N[C@@H](Cc1ccccc1)C(=O)O > 76.9 µM, CSCC[C@H](NC(=O)NCCC1=CCCCC1)C(=O)O > 76.9 µM, COC(=O)c1cccc(NC(=O)CSc2nnc(C)n2Cc2ccccc2)c1 > 76.9 µM, Cn1c(C(=O)NCC2CCCO2)cc2c(=O)[nH]c3ccccc3c21 (stereo not drawn) > 76.9 µM, CC(C)Cc1c(O)nc(SCCN2CCOCC2)[nH]c1=O > 76.9 µM, CCN(CCCNC(=O)CCNC(=O)Cn1cnc2ccccc2c1=O)c1cccc(C)c1 > 76.9 µM, COc1ccc2nc(NC(=O)C3CCCN(S(=O)(=O)c4cccc5nonc45)C3)sc2c1 (stereo not drawn) > 76.9 µM, O/N=C1\CC2(Cc3nonc31)OCCO2 > 76.9 µM, CCOC(=O)CSc1nc2sc(C)c(C)c2c(=O)[nH]1 > 76.9 µM, COc1cccc(NC(=O)c2ccc(CN3CCN(c4ccccc4)CC3)cc2)c1 > 76.9 µM, CCc1ccccc1N1CCN(S(=O)(=O)c2cc(OC)ccc2OC)CC1, O=C1c2ccccc2C(=O)N1Cc1nc2ccccc2c(=O)n1Cc1ccco1 > 76.9 µM, CCOc1ccc2[nH]c(=O)c(CN(CCO)C(=O)CC)cc2c1 > 76.9 µM, COc1ccc(C(=O)CSc2cc(C)nc3nc(C)nn23)cc1OC > 76.9 µM, COc1ccccc1Cn1c(=O)[nH]c2cccnc21 > 76.9 µM, NC(=O)CSc1oc(-c2ccc(F)cc2)nc1S(=O)(=O)c1ccccc1 > 76.9 µM, O=c1[nH]c2cc3c(cc2cc1C(c1nnnn1C1CCCC1)N1CCCc2ccccc21)OCCO3 (stereo not drawn) > 76.9 µM, CCCn1nnnc1NCc1ccccc1OCc1cccs1 > 76.9 µM, Cc1ccc(CNC(=O)c2oc3ccc(S(=O)(=O)N4CCC5(CC4)OCCO5)cc3c2C)cc1 > 76.9 µM, O=C(CCc1ccccc1)Nc1cccc(-c2nnc(-c3ccco3)o2)c1 > 76.9 µM, CCn1c(=O)c2cc(S(=O)(=O)NCCOc3ccccc3)ccc2n(CC)c1=O > 76.9 µM, COc1ccc(N(C)C(=O)CCS(=O)(=O)c2cccc3nonc23)c(OC)c1 > 76.9 µM, Cc1ccc(N2CCN(C(=O)c3ccccc3Br)CC2)c(C)c1 > 76.9 µM, CCn1c(SCc2nc3ccccc3[nH]2)nnc1-c1ccccc1OC > 76.9 µM, CCCn1nnnc1SCC(=O)NCc1ccccc1 > 76.9 µM, Cc1cc(C(C)(C)C)oc1C(=O)N1CCN(C(=O)c2oc(C(C)(C)C)cc2C)CC1 > 76.9 µM, Cc1ccccc1C1=NC(c2ccc(F)cc2F)ON1 (stereo not drawn) > 76.9 µM, Cc1nc2ccccc2c2oc(C(=O)NCC3CCCO3)cc12 (stereo not drawn) > 76.9 µM, O=C(c1cc2nc(-c3ccccc3)cc(C(F)(F)F)n2n1)N1CCCC1 > 76.9 µM, O=C(OCCN1C(=O)c2ccccc2C1=O)c1cnccn1 > 76.9 µM, Cc1cc(C(=O)Nc2ccccn2)no1 > 76.9 µM, COc1ccc(OC)c(C(=O)CSc2nnc(-c3cccs3)n2C)c1 > 76.9 µM, COC(=O)n1c(=O)oc2ccccc21 > 76.9 µM, Cc1nc(SCc2c(F)cccc2Cl)n[nH]1 > 76.9 µM, NC(=O)SC/C(=N\S(=O)(=O)c1ccccc1)Nc1ccccc1 > 76.9 µM, Cc1csc2nc(CSc3ccc(Cl)cc3)cn12 > 76.9 µM, CCC1CCc2c(sc(NC(=O)c3ccoc3C)c2C(N)=O)C1 (stereo not drawn) > 76.9 µM, O=C(C1CCCCC1)N1CCC(n2nnc3ccccc32)CC1 > 76.9 µM, COc1ccc2nc3sc(C(=O)NCc4cccs4)c(N)c3cc2c1 > 76.9 µM, Cc1ccc(S(=O)(=O)NC2=NCN(Cc3ccccc3)CN2)cc1 > 76.9 µM, Cc1ccc(C)n1C(Cc1ccccc1)C(=O)O (stereo not drawn) > 76.9 µM, COC(=O)CSc1nc2ccc(NC(C)=O)cc2s1 > 76.9 µM, c1cc(C(c2nnnn2C2CCCCC2)N2CCN3CCCC3C2)ccn1 (stereo not drawn) > 76.9 µM, Cc1cc(NC(=O)C(C)C)ncc1NC(=O)CCc1ccccc1 > 76.9 µM, COc1ccccc1N1CCN(C(c2cccs2)C(C)NC(=O)c2cccs2)CC1 (stereo not drawn) > 76.9 µM, CCOC(=O)C1CCCN(C(=O)c2cc3c(-c4cccc(OC)c4)nn(C)c3s2)C1 (stereo not drawn) > 76.9 µM, O=C(C1CCCN1C(=O)c1cccs1)N1CCN(Cc2ccc3c(c2)OCO3)CC1 (stereo not drawn) > 76.9 µM, Cc1noc(C)c1COc1cccc(C(=O)OCC(=O)N2CC(=O)Nc3ccccc32)c1 > 76.9 µM, CCCn1c(N)c(Sc2ccc(Cl)cc2)c(=O)n(CCC)c1=O, CCOC(=O)N1CCN(C(=O)c2c(O)c3cccc4c3n(c2=O)CC4)CC1 > 76.9 µM, CCN1CCN(c2ccc(NC(=O)Cc3ccccc3)cc2)CC1, CCOC(=O)CSC1=C(C#N)C(c2ccc(C)cc2)C2=C(CCCC2=O)N1 (stereo not drawn) > 76.9 µM, Cc1ccccc1Cn1cnc2c(nnn2Cc2ccc(F)cc2)c1=O > 76.9 µM, CCCC(=O)Nc1ccccc1NC(=O)C1CCCCC1 > 76.9 µM, CCOC(=O)c1oc2ccccc2c1CSc1nnnn1-c1ccccc1 > 76.9 µM, CCc1cc2c(N3CCCCC3)ncnc2s1 > 76.9 µM, COc1ccc(C)c(Cn2c(-c3nonc3N)nc3ccccc32)c1 > 76.9 µM, CCOC(=O)c1cccc(NC(=O)CSc2nnc(C3CCCCC3)n2CC)c1 > 76.9 µM, O=C(CSc1nnc2ccccn12)NCc1cccs1 > 76.9 µM, COc1ccc(C(=O)NCCn2ccc3ccccc32)c(OC)c1 > 76.9 µM, CN(C)CCNc1ncnc2ccccc12 > 76.9 µM, Cc1cc(C(=O)NCc2ccc(S(N)(=O)=O)cc2)cs1 > 76.9 µM, Cc1csc(Sc2nc3c(c(=O)[nH]c(=O)n3C)n2Cc2ccccc2Cl)n1 > 76.9 µM, O=C(COC(=O)c1ccc(Br)c(S(=O)(=O)N2CCOCC2)c1)NCC1CCCO1 (stereo not drawn) > 76.9 µM

From PubChem BioAssay AID360 (National Center for Advancing Translational Sciences (NCATS), 2006)
